Source: PubChem BioAssay AID1477 (National Center for Advancing Translational Sciences (NCATS), 2009)
Hit rate of the full screen: of about 230,000 compounds, fewer than 10 were called active. Inconclusive results, whose numbers are uncertain, are shown with a selection of clear calls. Calls follow the shape of the dose curve; as a rule, active = well fitted curve in the direction sought with a large enough effect; inconclusive = small, poorly fitted or top-dose-only effect, or effect the other way, or another doubt; inactive = no such curve, though single readings can be large or run the other way. Potencies of inconclusive entries are left out as doubtful fits.

target: Runt-related transcription factor 1 (Homo sapiens) + Core-binding factor subunit beta (Homo sapiens) (UniProt Q01196+Q13951); assay: qHTS Assay for Compounds Blocking the Interaction Between CBF-beta and RUNX1 for the Treatment of Acute Myeloid Leukemia; details: AlphaScreen CBFb-His/RUNX1-biotin binding, biochemical; series mostly up to 59.8 µM
Chain of UniProt Q01196 (Q01196 whole entry, looked up): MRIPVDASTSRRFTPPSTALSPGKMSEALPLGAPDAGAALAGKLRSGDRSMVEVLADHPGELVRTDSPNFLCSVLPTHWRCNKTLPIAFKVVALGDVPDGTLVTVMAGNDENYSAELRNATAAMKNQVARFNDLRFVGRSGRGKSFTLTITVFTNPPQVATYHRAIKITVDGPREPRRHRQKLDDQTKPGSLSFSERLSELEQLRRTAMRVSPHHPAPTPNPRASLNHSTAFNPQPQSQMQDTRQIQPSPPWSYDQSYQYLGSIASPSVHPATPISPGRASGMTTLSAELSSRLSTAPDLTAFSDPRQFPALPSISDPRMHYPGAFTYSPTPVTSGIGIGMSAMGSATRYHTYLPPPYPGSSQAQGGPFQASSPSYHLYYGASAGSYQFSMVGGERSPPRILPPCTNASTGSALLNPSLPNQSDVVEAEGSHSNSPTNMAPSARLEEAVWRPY
Chain of UniProt Q01196 (Q13951 whole entry, looked up): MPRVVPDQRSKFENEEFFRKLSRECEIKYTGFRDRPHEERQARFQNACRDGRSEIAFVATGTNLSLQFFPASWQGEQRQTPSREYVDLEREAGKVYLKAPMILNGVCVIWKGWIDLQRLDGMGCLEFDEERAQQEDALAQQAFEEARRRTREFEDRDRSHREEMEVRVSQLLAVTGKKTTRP
Text: NIH Chemical Genomics Center [NCGC]
NIH Molecular Libraries Probe Production centers Network [MLPCN]
Assay Submitter (PI): Paul Liu
Core Binding Factor (CBF) abnormalities are associated with 20-25% of all acute myeloid leukemias (AML), of which 5-10% are further sub classified as acute myelomonocytic leukemia with eosinophilia, also known as M4Eo in the FAB classification scheme. This subtype of leukemia is usually associated with chromosome 16 inversion (p13:q22). Chromosome 16 inversion results in formation of the fusion oncogene CBFB-MYH11, which encodes the fusion protein CBF-beta-SMMHC.
It has been hypothesized that the interference of CBF-beta and RUNX1 binding could have therapeutic implications for patients with CBF mediated leukemias. We developed a CBF-beta and RUNX1 binding assay in AlphaScreenTM format and optimized it for high throughput screening to search for inhibitors. The goal of this project is to screen MLPCN's compound collection (MLSMR) for identifying the inhibitors of the interaction between CBF-beta and RUNX1 proteins as research probes. If these probes work well in the animal models, the ultimate goal of this project is to development a new drug treatment for this disease.
This assay can not be used to assess how apparent inhibitors interfere with protein binding, and whether inhibitors specifically bind to either protein. Disruption of this protein-protein interaction, through any mechanism, is the intended target activity.
NCGC Assay Protocol Summary:
Step, Parameter, Description
(1) Reagent, 3 uL CBFb-His/RUNX1-biotin mix incubated together for 20 minutes at room temperature (30 nM each)
(2) Compound or control, 23 nL compound stock solution
(3) Incubation, 15 minutes at Room temperature
(4) Reagent, 1 uL 50 ng each of beads (Nickel beads and streptavidin beads)
(5) Incubation, 90 minutes at Room temperature
(6) Detection, Excitation=365 nm Emission=440 nm, Envision reader in AlphaScreenTM mode
Keywords: MLSMR, MLPCN, NIH Roadmap, qHTS, NCGC, Core binding factor, CBF, CBF-beta, Acute myeloid leukemia

| SMILES | Potency |
| --- | --- |
| C=C1C(c2ccc(C)cc2)=CCc2cc(C)cc(C)c21 | inactive |
| NC(=O)c1ccc(-n2nnnc2SCC(=O)c2ccc(O)c(O)c2)cc1 | inconclusive [activator, single point] |
| CCOC(=O)c1c(C)oc2ccc(OCc3cc(C(=O)OC)oc3C)cc12 | inactive |
| CCOC(=O)c1sc(NC(=O)C2CCCO2)c(C(=O)OCC)c1C (stereo not drawn) | inconclusive [inhibitor, single point] |
| COc1ccc(/C(N)=N/OC(=O)Cc2ccccc2OC)cc1 | inconclusive [activator, single point] |
| COc1ccccc1Nc1nc(-c2sc(NC(=O)C(C)(C)C)nc2C)cs1 | inconclusive [inhibitor, partial curve] |
| CC1(C)c2ccccc2N2CC(=O)N(CC(N)=O)C21C (stereo not drawn) | inactive |
| COc1ccc(NC(=O)CSc2n[nH]c(C(C)C)n2)c([N+](=O)[O-])c1 | inactive |
| CCN(CC)CCOc1ccc2c(c1)C(=NNC(=O)c1ccccn1)c1cc(OCCN(CC)CC)ccc1-2 | inconclusive [inhibitor, single point] |
| CC(=O)Nc1cccc(/C(C)=N/Nc2nc3ccccc3s2)c1 | inconclusive [inhibitor, single point] |
| COc1ccc(CCNC(=S)Nc2ccc(OC)cc2)cc1 | inactive |
| Cc1cccc(CSc2nc3c(c(-c4cccs4)c2C#N)CN(C)CC3)c1 | inactive |
| CC(=O)C1=C(C)NC(=S)NC1c1cccc([N+](=O)[O-])c1 (stereo not drawn) | inconclusive [activator, single point] |
| CS(=O)(=O)c1ccc2nnn(OCC(=O)Nc3cccc(C#N)c3)c2c1 | inconclusive [inhibitor, full curve, poor fit] |
| CCOC(=O)C1=C(C)NC(=S)NC1c1cccc(O)c1 (stereo not drawn) | inconclusive [activator, full curve, poor fit] |
| O=C(Nc1ccc(S(=O)(=O)N2CCC(C(=O)NC3CCCCC3)CC2)cc1)c1ccco1 | inactive |
| COc1ccc(C(C)=O)cc1COc1ccc(Cl)c(C)c1 | inconclusive [activator, single point] |
| CCC1=Nc2ccccc2NC2=C1C(=O)CCC2 | inconclusive [inhibitor, single point] |
| COc1ccc(CCC(=O)OC(C)C(=O)c2ccc(C)cc2)cc1 (stereo not drawn) | inconclusive [activator, partial curve] |
| COc1ccccc1Nc1ccc(N)cc1 | inconclusive [inhibitor, partial curve] |
| CC1=Nc2ccc(C)cc2/C1=C/c1c(N)n2oc(C)cc2nc1=O | inconclusive [inhibitor, single point] |
| O=C(Nc1ccc(S(=O)(=O)Nc2nccs2)cc1)c1cc(-c2ccccc2)nc2ccccc12 | inconclusive [inhibitor, single point] |

| SMILES | Potency |
| --- | --- |
| C=CCn1c(=O)c2c(nc(-c3ccccc3)n2C)n(C)c1=O | inconclusive [activator, full curve, poor fit] |
| C/C(N=Nc1nc2ccccc2s1)=N\Nc1ccccc1O | inconclusive [inhibitor, full curve, poor fit] |
| O=c1oc2cc(O)ccc2cc1-c1ccc(F)cc1 | inconclusive [activator, partial curve] |
| O=C1NC(=S)SC1=C1CCCC1 | inconclusive [inhibitor, partial curve] |
| COc1cc(/C=C2\SC(=S)N(N(C)c3ccccc3)C2=O)ccc1O | inconclusive [inhibitor, partial curve] |
| COc1ccc(N2CCC(CNC(=S)Nc3cccc(C)c3)C2)cc1 (stereo not drawn) | inconclusive [inhibitor, partial curve] |
| COc1cc2c(C(=O)c3ccccc3)c3c4c(cc(OC)c(OC)c4c2cc1OC)CCN3C | inconclusive [inhibitor, partial curve] |
| COc1cccc(-c2nnc(-c3ccc(C(F)(F)F)cc3)o2)c1 | inconclusive [activator, partial curve, poor fit] |
| O=C(Nc1cc(S(=O)(=O)N2CCCCC2)ccc1Cl)c1ccccc1NS(=O)(=O)c1ccc(F)cc1 | inactive |
| CN1C[C@H](C(=O)N[C@]2(C)O[C@@]3(O)[C@@H]4CCCN4C(=O)[C@H](Cc4ccccc4)N3C2=O)C=C2c3cccc4[nH]cc(c34)C[C@H]21 | inconclusive [inhibitor, full curve] |
| O=C(CCn1c2c(c3ccccc31)CCCC2)NNC(=O)c1ccccc1C(=O)O | inconclusive [inhibitor, single point] |
| CCCCOC(=O)C1CN(c2ccccc2)N=C1C(C)=O (stereo not drawn) | inconclusive [activator, single point] |
| O=C(N/N=C/c1ccco1)c1ccc(OCc2ccccc2)cc1 | inconclusive [inhibitor, single point] |
| Cc1ccc(NC(=S)c2nc3ccccc3[nH]2)c(C)c1 | inconclusive [inhibitor, partial curve] |
| COc1ccc(C(=O)[C@H]2[C@H]3C(=O)N(c4ccccc4)C(=O)[C@H]3C3C=CC=NN32)cc1 (stereo partly drawn) | inactive |
| Cc1cccc2cc(C#N)c(NCCCNS(=O)(=O)c3ccc(Cl)cc3)nc12 | inconclusive [activator, partial curve] |
| CCCCCSc1cc(OC)c(CCN(C)C)cc1OC | inconclusive [inhibitor, partial curve, poor fit] |
| N#Cc1ccc(NC(=O)CCc2nc3ccccc3s2)cc1 | inconclusive [inhibitor, partial curve] |
| O=C(NCCc1ccccc1)NC1CCCCC1 | inactive |
| N#C/C(=C/c1ccc(F)cc1)c1nnc(NC(=O)c2ccccc2)s1 | inconclusive [activator, full curve] |
| N#Cc1c(C(F)(F)F)cc(-c2ccc(Cl)c(Cl)c2)nc1SCCN1CCOCC1 | inactive |
